# In PubChem BioAssay AID488969 (Vanderbilt High Throughput Screening Facility, 2010):
# Whole data set: some 110,000 compounds, median “z-score” near -0.1, cut for the highest 2% near 2. The list shows a part of the results.
# Target: Metabotropic glutamate receptor 8 (Rattus norvegicus) (UniProt P70579)
# Experiment: mGluR8 Gi/Go-coupled signaling modulation – cell-based, rat, thallium flux, HTS, primary screen (AID 488969)
# Details: HEK293 rat mGluR8, GIRK (G protein-gated inwardly rectifying potassium channel) thallium flux, FluoZin2; at 10 µM; stronger effect = higher value; submaximal glutamate (EC20) added with thallium
# UniProt P70579, sequence (P70579 whole entry, looked up): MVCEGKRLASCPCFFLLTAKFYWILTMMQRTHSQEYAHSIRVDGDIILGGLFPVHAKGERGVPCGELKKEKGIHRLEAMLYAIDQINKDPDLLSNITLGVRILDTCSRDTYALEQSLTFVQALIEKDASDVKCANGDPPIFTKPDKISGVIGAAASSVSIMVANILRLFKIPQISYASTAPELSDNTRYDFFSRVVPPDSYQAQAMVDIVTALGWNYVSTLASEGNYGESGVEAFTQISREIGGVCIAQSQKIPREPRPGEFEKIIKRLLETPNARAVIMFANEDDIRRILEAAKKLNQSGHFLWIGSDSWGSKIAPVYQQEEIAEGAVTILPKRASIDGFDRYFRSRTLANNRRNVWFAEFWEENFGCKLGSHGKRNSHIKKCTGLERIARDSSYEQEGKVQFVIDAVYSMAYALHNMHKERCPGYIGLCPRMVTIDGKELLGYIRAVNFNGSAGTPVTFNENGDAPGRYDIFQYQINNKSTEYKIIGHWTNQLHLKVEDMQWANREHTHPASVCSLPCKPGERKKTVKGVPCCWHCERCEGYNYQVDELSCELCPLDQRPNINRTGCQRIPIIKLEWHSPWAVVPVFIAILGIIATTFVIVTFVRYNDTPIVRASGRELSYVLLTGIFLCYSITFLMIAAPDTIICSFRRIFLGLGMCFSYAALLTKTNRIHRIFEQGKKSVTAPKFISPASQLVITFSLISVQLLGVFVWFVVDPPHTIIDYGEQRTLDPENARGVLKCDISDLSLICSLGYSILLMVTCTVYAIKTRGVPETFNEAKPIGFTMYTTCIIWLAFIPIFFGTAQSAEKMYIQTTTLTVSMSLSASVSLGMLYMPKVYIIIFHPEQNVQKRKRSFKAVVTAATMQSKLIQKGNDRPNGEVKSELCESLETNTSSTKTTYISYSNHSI
row,SMILES,z-score
1,Nc1c(C(=O)NC2CC2)sc2nc3c(c(-c4ccco4)c12)CC/C3=C/c1ccco1,-0.208
2,Cc1ccc(CNC(=O)C23CN(Cc4ccccc4)CC2C(c2cccc([N+](=O)[O-])c2)=NO3)cc1 (stereo unspecified),-0.0916
3,N#Cc1c(N)nc(SCC(=O)C23CC4CC(CC(C4)C2)C3)c(C#N)c1-c1ccc(Cl)cc1,-0.933
4,O=C(Nc1cccc2cccc(NC(=O)c3ccco3)c12)c1ccco1,-0.0463
5,COC(=O)c1ccc(CN(c2ccccc2OC)S(=O)(=O)c2cccs2)o1,-0.365
6,N#CCCn1c(-c2nonc2NC(=O)c2ccccc2Cl)nc2ccccc21,-1.16
7,CCn1c(SCC(=O)Nc2nc(C)c(C(=O)OC)s2)nnc1C(C)C,0.437
8,O=C(CSc1nc2ccccc2c(=O)n1CCC(=O)N1CCCCC1)NCc1ccccc1,-1.42
9,COc1c(Cl)cc(Cl)cc1/C=N/n1cnnc1,-0.0431
10,COc1ccccc1N1C(=O)C2ON(c3ccccc3)C(c3ccc(N(C)C)cc3)C2C1=O (stereo unspecified),0.0686
11,CCOc1ccc(OCC)c(NC(=O)CCn2cccc2)c1,-0.394
12,COC(=O)c1cnc2ccccc2n1,-0.159
13,CCc1ccc(-c2cc(C(F)(F)F)n3nc(C(=O)Nc4c(C)nn(Cc5ccccc5C)c4C)cc3n2)s1,-0.0611
14,CN(CCC#N)c1ccc(/C=C(\C#N)c2ccccn2)cc1,-0.331
15,CCOc1ccccc1N/C(=N/c1nc(C)cc(C)n1)NC(=O)Nc1ccc(Cl)c(Cl)c1,0.254
16,COC(=O)C(C)Oc1ccc2c3c(c(=O)oc2c1)CCCCC3 (stereo unspecified),-0.318
17,CCOC(=O)C1=C(C)C2C3C(=O)N(c4cc(C)ccc4C)C(=O)C3C1(C)C1C(=O)N(c3cc(C)ccc3C)C(=O)C21 (stereo unspecified),0.469
18,COc1ccc2c(c1)CCc1c(C(=O)NCc3cccnc3)noc1-2,-0.358
19,Cc1nnc(-c2ccco2)c2cn(-c3cccc(Br)c3)nc12,-0.309

row,SMILES,z-score
1,O=C(OCc1ccccn1)c1ccc(COc2ccccc2Cl)o1,-0.106
2,O=C(CSCc1ccc(F)cc1)N1CCOCC1,-0.0267
3,O=C(c1cccnc1)N1CCc2ccccc2C1,0.587
4,CCN(CC)C(=O)COc1ccc2oc(C)c(C(=O)OC(C)C)c2c1,-0.537
5,Cc1cccc(N(CC(=O)Nc2ccc(F)cc2)S(C)(=O)=O)c1,0.171
6,COCCCNC(=O)c1ccccc1NS(C)(=O)=O,-0.124
7,Cc1ccc(C(=O)N2CCN(C(=O)CN3CCCC3)C2)cc1,-0.0665
8,COc1ccc(/C=C2\C(=O)OCc3cc(OC)c(OC)cc32)cc1OC,-0.0398
9,COc1cccc2c(=O)cc(C)n(CC(=O)Nc3ccccc3C)c12,-0.331
10,Cc1ccc(SCc2nc3ccccc3n2CC(=O)Nc2ccc(Cl)cc2)cc1,-0.494
11,C=CCn1c(SCC(=O)NC(N)=O)nnc1-c1cc2c(s1)CCC(CC)C2 (stereo unspecified),-1.23
12,O=C(Cc1ccccc1)N/N=C\c1ccc(Br)o1,-0.0925
13,Nn1c(SCC(=O)Nc2nc3ccccc3s2)nncc1=O,-0.213
14,O=C(CN1CCCc2ccccc21)N/N=C/c1c(O)ccc2ccccc12,-0.0957
15,C=C(C)Cc1c(C)nc(-c2ccccc2)[nH]c1=O,-0.288
16,N=c1c2c3c(sc2ncn1CCN1CCOCC1)CCCCC3,1.72
17,O=C(Nc1ccc(Br)cn1)C1CCCN1S(=O)(=O)c1ccccc1 (stereo unspecified),-0.0381
18,Cc1ccccc1NC(=O)CCN1CCN(C/C=C/c2ccccc2)CC1,-0.0469
19,CCOC(=O)c1cn(CC(=O)Nc2cccc(Cl)c2C)nn1,-0.294

row,SMILES,z-score
1,Cc1cc(NC(=O)C2CCN(S(=O)(=O)Cc3ccccc3)CC2)ccc1-n1cnnn1,-0.19
2,CC(C)C(=O)Nc1ccc(N2CCCC2)cc1,-0.815
3,O=C(N/N=C/c1cn(-c2ccccc2)nc1-c1ccc(F)cc1)c1ccc2c(c1)OCO2,0.228
4,Cn1c(=O)oc2cc(S(=O)(=O)N3CCCC(C(=O)Nc4ccccn4)C3)ccc21 (stereo unspecified),-0.21
5,COc1ccc(/C=N/NC(=O)C(=O)NCc2cccnc2)cc1OC,0.161
6,O=C(Nc1cc(Cl)cc(Cl)c1)c1cccc(OC(F)F)c1,-0.396
7,Cc1ccccc1OCCSc1nnc(-c2ccncc2)n1C,-0.096
8,Cc1cc(=O)[nH]c(SCC(=O)Nc2nc(-c3ccccc3)cs2)n1,-1.18
9,COc1ccc(NC(=O)CSc2ccccc2)cc1S(=O)(=O)N1CCCCC1,-0.233
10,N#CCCn1[nH]c(-c2ccccc2)cc1=O,-0.183
11,CC1(C)C(O)=C(c2nc3ccccc3[nH]2)C(=N)N1c1ccccc1,-0.0993
12,CC(=O)Nc1sc(C)c(C)c1C(=O)OCC(=O)N(C)C1CCS(=O)(=O)C1 (stereo unspecified),0.0245
13,COc1ccc(C(=O)NC(Cc2ccccc2)c2ccc3c(c2)OCCCO3)cc1 (stereo unspecified),-0.19
14,CC(=O)NNC(=O)CC(=O)Nc1nc(C23CC4CC(CC(C4)C2)C3)cs1,-0.221
15,O=C(c1ccc(N2CCCCC2)c([N+](=O)[O-])c1)N(Cc1ccccc1)c1ccccn1,-0.364
16,COc1cccc(N2CC(C(=O)Nc3nnc(SCC(=O)c4ccccc4)s3)CC2=O)c1 (stereo unspecified),0.128
17,Cc1ccc(N(Cc2ccc(C(=O)Nc3ccccc3C(=O)NCc3ccco3)cc2)S(C)(=O)=O)cc1C,-0.321
18,CC(=O)Oc1ccc(Oc2ccc(-c3noc(C)n3)cc2)cc1,-0.184
